In all, about 33,000 sequences were measured (“E-score (-0.5 to 0.5)”: median about -0.054, highest 2% from about 0.35 on). Some of the results follow.
These sequences were tested against T1, Stb5 (UniProt P38699) (assay: PBM E-score (8-mer binding enrichment) (E-score (-0.5 to 0.5)); higher = stronger / more preferred TF binding; most listed sequences are background and not binding sites). Conditions: protein concentration: 200 nM; construct: GST-full length.
T1 sequence: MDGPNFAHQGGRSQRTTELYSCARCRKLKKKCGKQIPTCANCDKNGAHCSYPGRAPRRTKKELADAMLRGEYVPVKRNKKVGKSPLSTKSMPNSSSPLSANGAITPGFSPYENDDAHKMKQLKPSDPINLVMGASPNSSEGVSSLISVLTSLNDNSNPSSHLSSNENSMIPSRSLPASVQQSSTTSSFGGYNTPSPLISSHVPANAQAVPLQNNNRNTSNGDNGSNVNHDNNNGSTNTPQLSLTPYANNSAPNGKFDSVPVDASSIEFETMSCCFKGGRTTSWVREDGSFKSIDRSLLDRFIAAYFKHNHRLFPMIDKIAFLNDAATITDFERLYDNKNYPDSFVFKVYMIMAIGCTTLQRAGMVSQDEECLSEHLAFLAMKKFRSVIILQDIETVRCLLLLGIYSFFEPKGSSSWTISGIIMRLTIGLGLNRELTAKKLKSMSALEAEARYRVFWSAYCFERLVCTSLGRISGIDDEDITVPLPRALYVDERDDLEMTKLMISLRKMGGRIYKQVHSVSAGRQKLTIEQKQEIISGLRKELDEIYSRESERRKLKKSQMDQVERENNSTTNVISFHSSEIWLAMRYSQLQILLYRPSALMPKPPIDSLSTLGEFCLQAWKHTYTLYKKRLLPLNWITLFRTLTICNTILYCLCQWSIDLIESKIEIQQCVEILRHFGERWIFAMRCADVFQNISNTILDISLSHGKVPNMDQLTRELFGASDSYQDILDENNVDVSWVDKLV
Experimental: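 Universal 'all 10-mer' protein binding microarrays (Agilent AMADID 015681) probed with GST-tagged S. cerevisiae TFs (full-length or DBD) made by in vitro transcription/translation (PURExpress), about 100-200 nM. Bound TF was detected with fluorescent anti-GST. Each ungapped 8-mer (which stands for itself and its reverse complement) is scored by the PBM enrichment score (E-score), a modified Wilcoxon-Mann-Whitney statistic from -0.5 to +0.5, computed with the Universal PBM Analysis Suite. Scale: above 0.35 generally sequence-specific binding.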
In the case of ACGACTGG, the “PBM E-score” value is reported as -0.152. CGGGGCAA was tested, and the “PBM E-score” value was 0.293. For TCTCTCAA, the “PBM E-score” value was 0.0742. For AGACAACA, the “PBM E-score” value was -0.0854. With GGAGCGTA the “PBM E-score” value was 0.0296. With ACAAATAT the “PBM E-score” value was -0.0227. In the case of ATTAGTCC, the “PBM E-score” value is reported as 0.248. With AAGACACC the “PBM E-score” value was 0.321. For AAACTAAC, the “PBM E-score” value was -0.0336. In the case of ACTCGTTA, the “PBM E-score” value is reported as -0.226. CTGGTAAG was tested, and the “PBM E-score” value was -0.163. ACATATTA was tested, and the “PBM E-score” value was 0.0329. AGGTTTGA was tested, and the “PBM E-score” value was -0.0736. AAGAGGAA was tested, and the “PBM E-score” value was -0.24. In the case of ATGTGTGG, the “PBM E-score” value is reported as -0.288. With GATGCGCA the “PBM E-score” value was 0.0286. In the case of GGCGGTAC, the “PBM E-score” value is reported as 0.361. For TCAGCGCA, the “PBM E-score” value was -0.0475. For GAGCATAC, the “PBM E-score” value was -0.182. With ACAACCAA the “PBM E-score” value was -0.26. AAAGCTTA was tested, and the “PBM E-score” value was -0.184. For AGTCCCAC, the “PBM E-score” value was -0.0178. CGAATTCC was tested, and the “PBM E-score” value was -0.0326. In the case of ATGCAATA, the “PBM E-score” value is reported as -0.178. TCACTTCA was tested, and the “PBM E-score” value was -0.0498. With CGAAATAA the “PBM E-score” value was 0.0814. For GCAACAAC, the “PBM E-score” value was -0.0708. In the case of AGCACCGG, the “PBM E-score” value is reported as 0.421. In the case of GGTGTAGA, the “PBM E-score” value is reported as 0.0547. For GCCTGGCA, the “PBM E-score” value was -0.204. AATAAAAT was tested, and the “PBM E-score” value was -0.0879. With ATCTCCAC the “PBM E-score” value was 0.0569. AAGCGTTC was tested, and the “PBM E-score” value was -0.145. For GATTCCCA, the “PBM E-score” value was -0.0952. For AGACATCT, the “PBM E-score” value was -0.249. With AGCATCCT the “PBM E-score” value was 0.0941. CACACTAA was tested, and the “PBM E-score” value was -0.317. For AGGCTGAA, the “PBM E-score” value was -0.167. For GTGAGCGA, the “PBM E-score” value was -0.182. AAGGGTGA was tested, and the “PBM E-score” value was -0.252. For CAGGAGCG, the “PBM E-score” value was 0.038. CCGTCTCC was tested, and the “PBM E-score” value was 0.22. For GACCGTGC, the “PBM E-score” value was 0.122. For ACTCGTAT, the “PBM E-score” value was -0.22. In the case of AGAGACCC, the “PBM E-score” value is reported as -0.0278. CAATGGAC was tested, and the “PBM E-score” value was -0.088. In the case of CTCGGGCC, the “PBM E-score” value is reported as 0.0979. For ACTTAACT, the “PBM E-score” value was -0.00566. For CTGGGCTC, the “PBM E-score” value was -0.335. For GAGCGAAA, the “PBM E-score” value was 0.029. For CGAGTCCA, the “PBM E-score” value was -0.152. For CCCAGACC, the “PBM E-score” value was -0.0261. For ATTTAGCG, the “PBM E-score” value was 0.179. In the case of ACCACAAC, the “PBM E-score” value is reported as -0.0638. In the case of GACTGCTA, the “PBM E-score” value is reported as -0.183. CCGCCCAG was tested, and the “PBM E-score” value was 0.311. For ACTGCATA, the “PBM E-score” value was -0.187. AGTGCTCC was tested, and the “PBM E-score” value was -0.0929. AACCGATT was tested, and the “PBM E-score” value was 0.0851. CGAACCAC was tested, and the “PBM E-score” value was 0.147. For GAGTAATC, the “PBM E-score” value was -0.0998. For GCTGGACC, the “PBM E-score” value was -0.0827. In the case of AAAATGTT, the “PBM E-score” value is reported as -0.267. In the case of GTAAATCA, the “PBM E-score” value is reported as 0.0689. ATGTATCA was tested, and the “PBM E-score” value was -0.245. For AGAATCAG, the “PBM E-score” value was 0.083. GATAGCAC was tested, and the “PBM E-score” value was 0.0288. CAGGCATA was tested, and the “PBM E-score” value was -0.0979. For GACTGCTC, the “PBM E-score” value was -0.238. In the case of GAAGCCGC, the “PBM E-score” value is reported as 0.202. In the case of CGGAACAG, the “PBM E-score” value is reported as 0.035. TCCCACCA was tested, and the “PBM E-score” value was -0.119. In the case of AAGTACGA, the “PBM E-score” value is reported as 0.0896. For GGGACGGA, the “PBM E-score” value was 0.255. For ACTAGGTG, the “PBM E-score” value was -0.129. In the case of AGCGCCCA, the “PBM E-score” value is reported as -0.145. In the case of GAAGTGAA, the “PBM E-score” value is reported as -0.157. GTCCGCTA was tested, and the “PBM E-score” value was 0.374. For GCGCCGCA, the “PBM E-score” value was 0.268. For ATTAGGTA, the “PBM E-score” value was -0.186. GCATAGGA was tested, and the “PBM E-score” value was -0.0752. In the case of ATCTTACC, the “PBM E-score” value is reported as 0.0611. For ATCTCCCA, the “PBM E-score” value was -0.158. In the case of GCGCATAA, the “PBM E-score” value is reported as -0.103. CAGAGTAC was tested, and the “PBM E-score” value was -0.0917. In the case of ACGTCTTA, the “PBM E-score” value is reported as -0.398. For CACGCATA, the “PBM E-score” value was -0.191. For GCTAAAAA, the “PBM E-score” value was -0.104. AGAATCTG was tested, and the “PBM E-score” value was -0.0539. For CCGCGGCC, the “PBM E-score” value was 0.317. In the case of GACGGGCC, the “PBM E-score” value is reported as 0.31. In the case of TAACTAAA, the “PBM E-score” value is reported as 0.029. With CGCTGCCG the “PBM E-score” value was 0.0613. With AGCGTTTA the “PBM E-score” value was -0.0439.
